± gives the uncertainty stated by the source. This continues a long series; more values of the same kind are listed elsewhere.
Experiment: xn = mol fraction of the nth substance listed
Settings: 101 kPa

CCCCCCCCCCCCOS(=O)(=O)[O-].[Na+] + O
Settings	electrical conductivity [S/m]
288.15 K, x1 = 7.35e-06	0.00102 ± 0.0006
288.15 K, x1 = 1.463e-05	0.00278 ± 0.00061
288.15 K, x1 = 2.184e-05	0.00515 ± 0.00061
288.15 K, x1 = 2.898e-05	0.00708 ± 0.00062
288.15 K, x1 = 3.604e-05	0.00931 ± 0.00064
288.15 K, x1 = 4.303e-05	0.0116 ± 0.00066
288.15 K, x1 = 4.997e-05	0.0139 ± 0.00069
288.15 K, x1 = 5.683e-05	0.0162 ± 0.00072
288.15 K, x1 = 6.362e-05	0.0186 ± 0.00071
288.15 K, x1 = 7.036e-05	0.0202 ± 0.00072
288.15 K, x1 = 7.703e-05	0.0225 ± 0.00079
288.15 K, x1 = 9.018e-05	0.0269 ± 0.00081
288.15 K, x1 = 9.658e-05	0.0286 ± 0.00082
288.15 K, x1 = 0.0001031	0.0307 ± 0.0009
288.15 K, x1 = 0.0001094	0.0328 ± 0.00095
288.15 K, x1 = 0.0001157	0.035 ± 0.00098
288.15 K, x1 = 0.000122	0.037 ± 0.00099
288.15 K, x1 = 0.0001281	0.039 ± 0.0011
288.15 K, x1 = 0.0001342	0.0411 ± 0.00099
288.15 K, x1 = 0.0001404	0.0425 ± 0.00077
288.15 K, x1 = 0.0001465	0.0432 ± 0.00075
288.15 K, x1 = 0.0001524	0.0444 ± 0.00079
288.15 K, x1 = 0.0001584	0.0452 ± 0.00078
288.15 K, x1 = 0.0001641	0.0462 ± 0.00076
288.15 K, x1 = 0.0001699	0.0469 ± 0.00075
288.15 K, x1 = 0.0001757	0.0478 ± 0.00081
288.15 K, x1 = 0.0001814	0.0487 ± 0.00082
288.15 K, x1 = 0.000187	0.0495 ± 0.00077
288.15 K, x1 = 0.0001928	0.0501 ± 0.00073
288.15 K, x1 = 0.0001982	0.0507 ± 0.00073
288.15 K, x1 = 0.0002038	0.0513 ± 0.0007
288.15 K, x1 = 0.0002092	0.0517 ± 0.00068
288.15 K, x1 = 0.0002147	0.0521 ± 0.00071
288.15 K, x1 = 0.00022	0.0527 ± 0.00076
288.15 K, x1 = 0.0002254	0.0532 ± 0.00076
288.15 K, x1 = 0.0002306	0.0537 ± 0.00075
288.15 K, x1 = 0.0002358	0.0542 ± 0.00077
288.15 K, x1 = 0.0002411	0.0548 ± 0.00081
288.15 K, x1 = 0.0002463	0.0554 ± 0.00084
298.15 K, x1 = 7.35e-06	0.00389 ± 0.0006
298.15 K, x1 = 1.463e-05	0.00675 ± 0.00061
298.15 K, x1 = 2.184e-05	0.00896 ± 0.00062
298.15 K, x1 = 2.898e-05	0.0117 ± 0.00064
298.15 K, x1 = 3.604e-05	0.0145 ± 0.00066
298.15 K, x1 = 4.303e-05	0.0171 ± 0.00068
298.15 K, x1 = 4.997e-05	0.0198 ± 0.00071
298.15 K, x1 = 5.683e-05	0.0224 ± 0.00072
298.15 K, x1 = 6.362e-05	0.0244 ± 0.00074
298.15 K, x1 = 7.036e-05	0.027 ± 0.00081
298.15 K, x1 = 7.703e-05	0.0296 ± 0.00085
298.15 K, x1 = 8.364e-05	0.0321 ± 0.00088
298.15 K, x1 = 9.018e-05	0.0347 ± 0.00091
298.15 K, x1 = 9.658e-05	0.0371 ± 0.00094
298.15 K, x1 = 0.0001031	0.0395 ± 0.00098
298.15 K, x1 = 0.000109	0.04113 ± 2e-05
298.15 K, x1 = 0.0001094	0.0419 ± 0.001
298.15 K, x1 = 0.0001157	0.0442 ± 0.001
298.15 K, x1 = 0.0001163	0.04369 ± 2e-05
298.15 K, x1 = 0.000122	0.0466 ± 0.0011
298.15 K, x1 = 0.0001243	0.04657 ± 2e-05
298.15 K, x1 = 0.0001281	0.0488 ± 0.0011
298.15 K, x1 = 0.0001331	0.04988 ± 2e-05
298.15 K, x1 = 0.0001342	0.0509 ± 0.001
298.15 K, x1 = 0.0001404	0.0524 ± 0.00098
298.15 K, x1 = 0.0001434	0.05351 ± 2e-05
298.15 K, x1 = 0.0001465	0.0543 ± 0.001
298.15 K, x1 = 0.0001524	0.0559 ± 0.00095
298.15 K, x1 = 0.0001584	0.0571 ± 0.00086
298.15 K, x1 = 0.0001641	0.0582 ± 0.00083
298.15 K, x1 = 0.0001699	0.0592 ± 0.00082
298.15 K, x1 = 0.0001705	0.05875 ± 3e-05
298.15 K, x1 = 0.0001757	0.0601 ± 0.00081
298.15 K, x1 = 0.0001814	0.0609 ± 0.00081
298.15 K, x1 = 0.000187	0.0617 ± 0.00082
298.15 K, x1 = 0.0001881	0.06154 ± 3e-05
298.15 K, x1 = 0.0001928	0.0626 ± 0.00085
298.15 K, x1 = 0.0001982	0.0634 ± 0.00083
298.15 K, x1 = 0.0002038	0.0641 ± 0.00082
298.15 K, x1 = 0.0002092	0.0648 ± 0.00083
298.15 K, x1 = 0.0002099	0.06444 ± 3e-05
298.15 K, x1 = 0.0002147	0.0654 ± 0.00082
298.15 K, x1 = 0.0002199	0.06573 ± 3e-05
298.15 K, x1 = 0.00022	0.066 ± 0.00083
298.15 K, x1 = 0.0002254	0.0666 ± 0.00086
298.15 K, x1 = 0.0002306	0.0673 ± 0.0009
298.15 K, x1 = 0.0002313	0.06734 ± 3e-05
298.15 K, x1 = 0.0002358	0.068 ± 0.00091
298.15 K, x1 = 0.0002411	0.0686 ± 0.00092
298.15 K, x1 = 0.0002463	0.0693 ± 0.002
298.15 K, x1 = 0.0002578	0.07077 ± 3e-05
298.15 K, x1 = 0.000273	0.07281 ± 4e-05
303.15 K, x1 = 6.546e-05	0.02789 ± 1e-05
303.15 K, x1 = 7.004e-05	0.02959 ± 1e-05
303.15 K, x1 = 7.539e-05	0.03194 ± 1e-05
303.15 K, x1 = 8.11e-05	0.03461 ± 2e-05
303.15 K, x1 = 8.834e-05	0.0377 ± 2e-05
303.15 K, x1 = 9.789e-05	0.04133 ± 2e-05
303.15 K, x1 = 0.0001032	0.04357 ± 2e-05
303.15 K, x1 = 0.0001093	0.04602 ± 2e-05
303.15 K, x1 = 0.0001154	0.04858 ± 2e-05
303.15 K, x1 = 0.0001227	0.05146 ± 2e-05
303.15 K, x1 = 0.0001315	0.05499 ± 2e-05
303.15 K, x1 = 0.000141	0.05904 ± 3e-05
303.15 K, x1 = 0.0001521	0.06267 ± 3e-05
303.15 K, x1 = 0.0001655	0.06503 ± 3e-05
303.15 K, x1 = 0.0001808	0.0677 ± 3e-05
303.15 K, x1 = 0.0001987	0.0707 ± 3e-05
303.15 K, x1 = 0.0002221	0.07424 ± 3e-05
303.15 K, x1 = 0.0002324	0.07585 ± 4e-05
303.15 K, x1 = 0.0002439	0.07788 ± 4e-05
303.15 K, x1 = 0.0002576	0.07981 ± 4e-05
303.15 K, x1 = 0.0002714	0.08185 ± 4e-05
303.15 K, x1 = 0.0002879	0.08443 ± 4e-05
308.15 K, x1 = 7.35e-06	0.00521 ± 0.0006
308.15 K, x1 = 1.463e-05	0.0087 ± 0.00062
308.15 K, x1 = 2.184e-05	0.012 ± 0.00063
308.15 K, x1 = 2.898e-05	0.0152 ± 0.00066
308.15 K, x1 = 3.604e-05	0.0186 ± 0.00069
308.15 K, x1 = 4.303e-05	0.0219 ± 0.00072
308.15 K, x1 = 4.997e-05	0.0251 ± 0.00076
308.15 K, x1 = 5.683e-05	0.0283 ± 0.0008
308.15 K, x1 = 6.047e-05	0.02841 ± 1e-05
308.15 K, x1 = 6.362e-05	0.0315 ± 0.00084
308.15 K, x1 = 6.925e-05	0.03246 ± 1e-05
308.15 K, x1 = 7.036e-05	0.0345 ± 0.00086
308.15 K, x1 = 7.703e-05	0.0375 ± 0.00092
308.15 K, x1 = 8.069e-05	0.0378 ± 2e-05
308.15 K, x1 = 8.364e-05	0.0405 ± 0.00094
308.15 K, x1 = 8.831e-05	0.04121 ± 2e-05
308.15 K, x1 = 9.018e-05	0.0432 ± 0.00099
308.15 K, x1 = 9.658e-05	0.0461 ± 0.0011
308.15 K, x1 = 9.746e-05	0.04516 ± 2e-05
308.15 K, x1 = 0.0001024	0.04761 ± 2e-05
308.15 K, x1 = 0.0001031	0.0491 ± 0.0011
308.15 K, x1 = 0.0001085	0.05017 ± 2e-05
308.15 K, x1 = 0.0001094	0.0517 ± 0.0011
308.15 K, x1 = 0.0001146	0.05305 ± 2e-05
308.15 K, x1 = 0.0001157	0.0544 ± 0.0011
308.15 K, x1 = 0.000122	0.0568 ± 0.0013
308.15 K, x1 = 0.0001281	0.0602 ± 0.0013
308.15 K, x1 = 0.0001306	0.0602 ± 2e-05
308.15 K, x1 = 0.0001342	0.0625 ± 0.0012
308.15 K, x1 = 0.0001398	0.06446 ± 2e-05
308.15 K, x1 = 0.0001404	0.0647 ± 0.0012
308.15 K, x1 = 0.0001465	0.0667 ± 0.0011
308.15 K, x1 = 0.0001512	0.06884 ± 3e-05
308.15 K, x1 = 0.0001524	0.0685 ± 0.0011
308.15 K, x1 = 0.0001584	0.0701 ± 0.0011
308.15 K, x1 = 0.0001641	0.0716 ± 0.0011

Reference: the CheMixHub ionic liquid set
